First the molecules themselves.
B1: parE; numbered along this chain (parent)
chain: MTQTYNADAIEVLTGLEPVRRRPGMYTDTTRPNHLGQEVIDNSVDEALAGHAKRVDVILHADQSLEVIDDGRGMPVDIHPEEGVPAVELILCRLHAGGKFSNKNYQFSGGLHGVGISVVNALSKRVEVNVRRDGQVYNIAFENGEKVQDLQVVGTCGKRNTGTSVHFWPDETFFDSPRFSVSRLTHVLKAKAVLCPGVEITFKDEINNTEQRWCYQDGLNDYLAEAVNGLPTLPEKPFIGNFAGDTEAVDWALLWLPEGGELLTESYVNLIPTMQGGTHVNGLRQGLLDAMREFCEYRNILPRGVKLSAEDIWDRCAYVLSVKMQDPQFAGQTKERLSSRQCAAFVSGVVKDAFILWLNQNVQAAELLAEMAISSAQRRMRAAKKVVRKKLTSGPALPGKLADCTAQDLNRTELFLVEGDSAGGSAKQARDREYQAIMPLKGKILNTWEVSSDEVLASQEVHDISVAIGIDPDSDDLSQLRYGKICILADADSDGLHIATLLCALFVKHFRALVKHGHVYVALPPLYRIDLGKEVYYALTEEEKEGVLEQLKRKKGKPNVQRFKGLGEMNPMQLRETTLDPNTRRLVQLTIDDEDDQRTDAMMDMLLAKKRSEDRRNWLQEKGDMAEIEV

Here are results for 15 variants from the supplement of paper PMC11876631.

± gives the standard deviation of the averaged measurements. Laboratory Escherichia coli strains with one amino-acid change in an essential protein, pooled on minimal glucose agar with carbenicillin or gentamicin at twice the control MIC (plus kanamycin and chloramphenicol for the plasmids), 48 h. Fold change of barcode share against drug-free plates; higher = less susceptible. Active = above 20 in both replicates (the paper's putatively resistant). '<' = one read or none on drug, '>' = one read or none on a drug-free plate. Shares are relative, so most strains fall below 1 when a few take over. Listed are strains with at least 15 reads on both drug-free plates, and hits; most hits rest on fewer reference reads. Replicate rank correlation about 0.5. Edits are read from barcodes.

The variants in one data set derive from B1. Nature of the data set: barcode share on antibiotic plates over drug-free plates; higher = less susceptible. Conditions: with Escherichia coli (laboratory strain); antibiotic: carbenicillin; 2× MIC (3.1 µg/mL). On the procedure: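 A pool of E. coli strains, each edited to carry one amino-acid change in an essential protein, was grown for 48 h on minimal glucose agar with or without antibiotic; strain barcodes were sequenced; mean of two replicates.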
L59P: the “fold change of barcode share” value was 0.258 ± 0.04. On the same count and under the same terms, as for L59Q, the figure is 0.35 ± 0.014; as for L59A, 0.254 ± 0.018. Still for that read-out and setting: the same measure for V319Q: 0.283 ± 0.029; for V319A: 0.33 ± 0.21. For the variant V346D, the “fold change of barcode share” value is 0.318 ± 0.089. Same read-out and setting: the same measure for V346P: 0.379 ± 0.065; for V346W: 0.5936 ± 0.003. As to V346Q, the “fold change of barcode share” value amounted to 0.528 ± 0.43.

As for V346A, the “fold change of barcode share” value is 0.351 ± 0.03. As for L358W, the “fold change of barcode share” value turned out to be 0.165 ± 0.0069. On the same count and under the same terms, the same measure for L358Q: 0.452 ± 0.028. In the case of L358A, the “fold change of barcode share” value worked out at 0.235 ± 0.038. With L283Q, the “fold change of barcode share” value is 0.302 ± 0.12.

The same data set, now with this note: with Escherichia coli (laboratory strain); antibiotic: gentamicin; 2× MIC (MIC 0.45 µg/mL).
Regarding L59P, the “fold change of barcode share” value was less than 0.00408. Consider L59Q, for which the “fold change of barcode share” value came to 0.006 ± 0.007. The same measure, in the same setting: the same measure for L59A: less than 0.00156; for V319Q: less than 0.0042; for V319A: 0.104 ± 0.14. On the same count and under the same terms, the same measure for V346D: 0.0123 ± 0.0093; for V346P: 0.00342 ± 0.0025; for V346W: 0.00641 ± 0.0026. The same measure, in the same setting: the same measure for V346Q: 0.00804 ± 0.0059; for V346A: 0.00728 ± 0.0011; for L358Q: less than 0.00548. For L358A, the “fold change of barcode share” value is less than 0.00418. The same measure, in the same setting: the same measure for L283Q: less than 0.0112. Still for that read-out and setting: as for L283A, the figure is 0.0316 ± 0.014.
